# Measured values as given in article PMC6919601, “Identification of Plasmodium dipeptidyl aminopeptidase allosteric inhibitors by high throughput screening” (PLoS ONE, 2019).
# In all, about 110,000 compounds went through this assay and about 230 (0.21%) showed an effect of 50% or more. This is one part of the list.
# Molecular target: DPAP1 (Plasmodium falciparum, UniProt Q8IIJ9)
# Assay: primary screen, percent inhibition; read by cleavage of a fluorogenic dipeptide substrate; higher = more effect of the substance
# Set-up: species or system P. falciparum D10 trophozoite lysates; single well
# 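Also: 30 min substrate incubation versus DMSO and 10 µM JCP410 controls.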
# Sequence of DPAP1 (Q8IIJ9 whole entry, looked up): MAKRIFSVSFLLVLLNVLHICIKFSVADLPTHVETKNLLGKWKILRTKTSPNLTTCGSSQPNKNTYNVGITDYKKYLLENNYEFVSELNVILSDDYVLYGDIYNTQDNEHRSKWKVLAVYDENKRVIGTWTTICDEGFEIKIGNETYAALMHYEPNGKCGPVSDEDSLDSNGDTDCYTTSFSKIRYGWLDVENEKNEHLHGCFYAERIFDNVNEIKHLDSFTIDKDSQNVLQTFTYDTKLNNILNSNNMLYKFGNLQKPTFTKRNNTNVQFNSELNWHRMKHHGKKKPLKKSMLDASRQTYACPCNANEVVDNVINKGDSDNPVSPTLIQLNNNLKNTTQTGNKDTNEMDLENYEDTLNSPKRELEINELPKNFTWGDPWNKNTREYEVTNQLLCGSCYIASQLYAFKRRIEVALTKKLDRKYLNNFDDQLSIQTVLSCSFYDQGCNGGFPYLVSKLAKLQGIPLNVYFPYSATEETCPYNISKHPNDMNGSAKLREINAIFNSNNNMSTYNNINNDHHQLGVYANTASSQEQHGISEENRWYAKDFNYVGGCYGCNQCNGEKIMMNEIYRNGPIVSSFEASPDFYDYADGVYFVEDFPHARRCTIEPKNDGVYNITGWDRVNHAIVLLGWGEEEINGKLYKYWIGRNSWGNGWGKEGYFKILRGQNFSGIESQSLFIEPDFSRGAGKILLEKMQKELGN
row,Compound,% Inhibition @ 10 uM [%]
1,CCOc1ccccc1NC(=O)C1=C(C)NC(=O)NC1c1ccc(Cl)cc1 (stereo not shown),-2.22
2,Nc1c(C(=O)Nc2ccc(C(=O)O)cc2)sc2nc3c(cc12)CCCCCC3,4.83
3,N#CC1=C(N)OC2=C(C(=O)c3ccccc3C2=O)C1c1ccc(F)c(F)c1 (stereo not shown),-2.21
4,Cc1ccc(F)cc1NC(=O)Cn1nc(C(F)(F)F)cc1C1CC1,-3.71
5,Cn1cc(C(=O)Nc2cccc(S(=O)(=O)N3CCOCC3)c2)cn1,0.35
6,COc1ccc(-c2noc(-c3ccc(F)cc3)n2)cc1,-5.62
7,CC(=O)N1CCC(NCCc2cccc(F)c2)CC1,1.74
8,COCc1cc(C)nc(Sc2nc3c(c(=O)n(C)c(=O)n3C)n2C)c1C#N,18.3
9,CC1CN(C2CCC(C(C)(C)C)CC2)CC(C)O1 (stereo not shown),-5.44
10,COc1cccc(/C=C2\CCC(C3CCCC3)C2=O)c1OC (stereo not shown),6.2
11,COC(=O)C1=C(C)N=C2SCC(=O)N2C1c1ccccc1 (stereo not shown),4.65
12,CN1CCN(C(=O)CCCc2nnc3n(C)c(=O)c4sccc4n23)CC1,-1.71
13,CCN(CC)CCn1c2ccccc2n2cc(-c3ccc(F)cc3)nc12,2.14
14,CCOC(=O)c1c(S(=O)(=O)NCc2ccccc2C)c(C)n(C)c1C,-3.57
15,CCN(CCCNC(=O)Cn1ncc2c3ccccc3nc-2c1O)Cc1ccccc1,-1.21
16,COc1ccc(-c2cc(C(=O)N3CC4(C)CC3CC(C)(C)C4)no2)cc1 (stereo not shown),-3.36
17,CCn1c(/C(C#N)=C/c2ccccc2Cl)nc2ccccc21,3.86
18,Cc1ccc2nc(NC(=O)CN(C)S(=O)(=O)c3ccc4[nH]c(-c5ccccc5)nc4c3)sc2c1,0.0525
19,N#C/C(=C\c1ccc(O)cc1)C(=O)NCC1CCCO1 (stereo not shown),1.67
20,Cc1cc2c(c(=O)o1)C1(C(=O)Nc3ccc(Br)cc31)C(C#N)=C(N)O2 (stereo not shown),-5.36
21,COc1ccc(C2=NN(CC(=O)NCCCN3CCC(Cc4ccccc4)CC3)C(=O)CC2)cc1,-0.0542
22,CCOC(=O)C1=C(C)N=c2s/c(=C\c3ccco3)c(=O)n2C1/C=C/c1ccccc1 (stereo not shown),3.44
23,Cc1nc2ccc(S(=O)(=O)N(CC(=O)NCCC3=CCCCC3)Cc3ccccc3)cc2s1,1.63
24,O=C(CC(=O)c1ccc([N+](=O)[O-])cc1)Nc1cc(C(F)(F)F)ccc1Cl,3.28
25,CCOc1ccc2ncc(S(=O)(=O)c3ccccc3)c(N3CCOCC3)c2c1,-4.68

row,Compound,% Inhibition @ 10 uM [%]
1,Cc1cc(C)c2c(-n3cccc3)c(C(=O)NCCc3ccc(S(N)(=O)=O)cc3)sc2n1,9.77
2,Cc1ccccc1CN(c1ccc(C(=O)NCc2cccnc2)cc1)S(C)(=O)=O,5.54
3,COc1ccc(C2C(C(=O)N(C)C3CCCCC3)c3cc(OC)c(OC)cc3C(=O)N2C)cc1 (stereo not shown),0.457
4,CCCCN(C)CCNC(=O)c1ccc(CS(=O)(=O)Cc2ccc(Cl)cc2)o1,2.05
5,CCOC(=O)N1CCN(C(=O)c2cc(-n3cnnc3)ccc2Cl)CC1,2.99
6,c1ccn2c(c1)nc1nc3nonc3nc12,-3.06
7,OC1(CCC#CCN2CCCCC2)c2ccccc2-c2ccccc21,2.86
8,Cn1cnc2c1c(=O)n(Cc1ccc(Cl)cc1F)c(=O)n2C,-3.45
9,CC1CCN(C(=O)CCc2nc(CN3CCN(C(=O)c4noc5c4CCCC5)CC3)no2)CC1,-7.02
10,COC(=O)C(=C/C(C)=C/c1ccco1)C(=O)OC,-5.62
11,COc1ccc(NC(=O)CCCC(=O)Nc2ccc(OC)cc2)cc1,-0.68
12,O=C(Nc1c(-c2ccccc2)nc2ccccn12)C1CCCCC1,0.813
13,CCCC1CCc2c(sc(NC(=O)c3cccnc3)c2C(N)=O)C1 (stereo not shown),-1.42
14,CC(C)(C)/C(O)=C/c1nc2ccccc2nc1/C=C(\O)C(C)(C)C,-1.84
15,CCSc1nc2sc3c(c2c(=O)n1CC)CCCC3,1.57
16,COc1ccc(C2C(C#N)=C(N)Oc3[nH]nc(C)c32)c(OCc2ccccc2Cl)c1 (stereo not shown),0.121
17,Cc1ccc(C)c(S(=O)(=O)NC(C)C(=O)Nc2ccc(F)cc2)c1 (stereo not shown),-11.7
18,O=S(=O)(NCC1CCCO1)c1ccc(Oc2ccccc2)cc1 (stereo not shown),0.161
19,CCc1ccc(CNC(=O)c2cc3c(C)nc4ccccc4c3o2)cc1,-3.45
20,CC(C)C[C@H](NC(=O)c1ccc(OC(F)(F)C(F)F)cc1)C(=O)NCC#N,0.174
21,CCOC(=O)c1c(NC(=O)CN(C)C)sc2c1CCC2,1.72
22,CCC(=O)Nc1ccc(S(=O)(=O)Nc2nc(C)cc(C)n2)cc1,-6.51
23,CCOC(=O)c1cc(-c2ccccc2)n(CC(=O)NC2CCCCCC2)c1C,15.2
24,Cc1c(C(=O)N(C)CCC#N)oc2ccc(S(=O)(=O)N3CC(C)CC(C)C3)cc12 (stereo not shown),3.66
